As a reminder, the IC50 is the concentration that inhibits the measured activity by half.

The IC50 comes from the fitted curve, where viability falls to half of the control; a fit beyond the top or the lowest dose is shown as a bound at that dose. AUC is the area under the same curve over the 256-fold range up to the top dose, as a fraction; it is 1 without any effect and falls as sensitivity rises. For part of these data: Where the top dose is marked as inferred, it comes from the curve model; the source does not state it. For part of these data: Drugs with an entry number were screened twice under separate entries, and the two screens often disagree.

Test in all cases: Viability of human cancer cell lines after 72 h of drug (GDSC screen)
Compound in one assay: NCC(=O)Nc1ccc(-n2nc(C(F)(F)F)cc2-c2ccc3c(ccc4ccccc43)c2)cc1 [OSU-03012]
Particulars: top dose 16 µM; top dose inferred. As for the experimental part: (§1)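 Human cancer cell lines in 384-well plates, medium with 10% serum, drug for 72 h over a 256-fold dose range (nine 2-fold or five 4-fold steps up to the top dose). Adherent lines were fixed and stained with the nucleic acid dye Syto60, suspension lines read with resazurin; signal relative to control wells, capped at 0 and 100%. One two-parameter sigmoid per drug and line, fitted in a mixed model over all curves with the slope shared within a line.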

Compound in a further assay: Fc1cc(-c2ccnc(Nc3ccc(-n4cnc(N5CCOCC5)n4)cc3)n2)cc(N2CCOCC2)c1 [JNK-9L]
Particulars: top dose 5.12 µM; top dose inferred. The method, then:
as §1

Compound in a further assay: OC[C@H](Cc1ccccc1)Nc1nc(Oc2ccc3c(c2)CCC3)nc2c1ncn2Cc1ccc(-c2ccccc2)cc1 [QS11]
Particulars: top dose 10.24 µM. As for the experimental part:
as §1

Compound in a further assay: C#Cc1cccc(Nc2ncnc3cc(OC)c(OCCCCCCC(=O)NO)cc23)c1 [CUDC-101]
Particulars: top dose 5.12 µM; top dose inferred. The method, then: as §1

Compound in the next assay: CC(C)(C)c1cc(NC(=O)Nc2ccc(-c3cn4c(n3)sc3cc(OCCN5CCOCC5)ccc34)cc2)no1 [AC220]
Conditions: top dose 1.024 µM; top dose inferred. The method, then:
as §1

Compound in the next assay: COc1cc(F)c(F)c(Nc2ccc(I)cc2F)c1NS(=O)(=O)C1(C[C@H](O)CO)CC1 [RDEA119]
Particulars: top dose 5 µM, top dose inferred. The method, then:
as §1

Compound in a further assay: O=c1[nH]cc(F)c(=O)[nH]1 [5-Fluorouracil]
Particulars: top dose 32 µM; top dose inferred. The method, then:
as §1

In the case of MSTO-211H (mesothelioma, adherent), the AUC in the assay with OSU-03012 was found to be 0.99; in the assay with JNK-9L, 0.805; in the assay with QS11 it was 0.99; in the assay with CUDC-101, 0.822; with AC220 it was 0.991; with RDEA119 (screen: GDSC drug entry 1014), 0.83. The AUC with 5-Fluorouracil stood at 0.988. The IC50 with OSU-03012 is greater than 16000 nM; with JNK-9L, 2300 nM; with QS11, greater than 10200 nM; in the assay with CUDC-101 it was 2620 nM; in the assay with AC220, greater than 1020 nM; with RDEA119 (screen: GDSC drug entry 1014), 2740 nM. Besides, in the assay with 5-Fluorouracil, the IC50 was greater than 32000 nM.

On to MY-M12 (leukaemia, suspension), for which the AUC with OSU-03012 came to 0.616; with JNK-9L, 0.65; with QS11 it was 0.604; with CUDC-101, 0.107; in the assay with AC220, 0.902; with RDEA119 (screen: GDSC drug entry 1014) it was 0.673. Moreover, the AUC with 5-Fluorouracil was 0.497. For the same cell line, the IC50 with OSU-03012 is 2180 nM; in the assay with JNK-9L it was 881 nM; with QS11 it was 1290 nM; in the assay with CUDC-101, less than 20 nM; with AC220, greater than 1020 nM; in the assay with RDEA119 (screen: GDSC drug entry 1014), 1020 nM. The IC50 in the assay with 5-Fluorouracil was determined as 1960 nM.

Take MZ1-PC (pancreas, adherent): the AUC worked out at 0.507 with OSU-03012; 0.401 with JNK-9L; 0.818 in the assay with QS11; 0.606 with CUDC-101; 0.97 with AC220; 0.657 in the assay with RDEA119 (screen: GDSC drug entry 1014). Further, the AUC in the assay with RDEA119 (screen: GDSC drug entry 1526) worked out at 0.67; in the assay with 5-Fluorouracil, 0.569. Moreover, the IC50 was 1050 nM with OSU-03012; 160 nM with JNK-9L; 7670 nM with QS11; 671 nM in the assay with CUDC-101; greater than 1020 nM with AC220; 950 nM with RDEA119 (screen: GDSC drug entry 1014). For the same cell line, the IC50 worked out at 1050 nM with RDEA119 (screen: GDSC drug entry 1526) and 3220 nM with 5-Fluorouracil.

As for MZ2-MEL (melanoma, adherent), the AUC with OSU-03012 came out at 0.748; with JNK-9L it was 0.564; with QS11, 0.758; with CUDC-101 it was 0.63; in the assay with AC220 it was 0.902; with RDEA119 (screen: GDSC drug entry 1014), 0.562. Also, the AUC with RDEA119 (screen: GDSC drug entry 1526) was 0.753; in the assay with 5-Fluorouracil, 0.961. Besides, the IC50 was 5930 nM with OSU-03012; 493 nM with JNK-9L; 4120 nM with QS11; 782 nM with CUDC-101; greater than 1020 nM with AC220; 475 nM with RDEA119 (screen: GDSC drug entry 1014). Moreover, the IC50 in the assay with RDEA119 (screen: GDSC drug entry 1526) is 1930 nM; with 5-Fluorouracil it was greater than 32000 nM.

As for MZ7-mel (melanoma, adherent), the AUC with OSU-03012 was determined as 0.824; with JNK-9L it was 0.661; with QS11 it was 0.803; in the assay with CUDC-101, 0.329; in the assay with AC220 it was 0.973; with RDEA119 (screen: GDSC drug entry 1014) it was 0.455. The values for the AUC with RDEA119 (screen: GDSC drug entry 1526) and with 5-Fluorouracil were 0.395 and 0.778, respectively. For the same cell line, the IC50 with OSU-03012 was 9950 nM; with JNK-9L, 914 nM; in the assay with QS11 it was 5290 nM; in the assay with CUDC-101, 105 nM; with AC220 it was greater than 1020 nM; in the assay with RDEA119 (screen: GDSC drug entry 1014), 235 nM. In addition, the IC50 with RDEA119 (screen: GDSC drug entry 1526) is 160 nM; with 5-Fluorouracil, 13400 nM.

As to Mewo (melanoma, adherent), the AUC in the assay with OSU-03012 worked out at 0.845; in the assay with JNK-9L, 0.656; in the assay with QS11, 0.983; in the assay with CUDC-101, 0.653; in the assay with AC220 it was 0.981; in the assay with RDEA119 (screen: GDSC drug entry 1526) it was 0.763. For the same cell line, the AUC in the assay with 5-Fluorouracil is 0.955. Besides, the IC50 is 15100 nM with OSU-03012; 949 nM with JNK-9L; greater than 10200 nM with QS11; 931 nM with CUDC-101; greater than 1020 nM with AC220; 2140 nM with RDEA119 (screen: GDSC drug entry 1526). Further, the IC50 with 5-Fluorouracil is greater than 32000 nM.

With Mo-T (hairy cell leukaemia, suspension), the AUC came to 0.846 with OSU-03012; 0.758 in the assay with JNK-9L; 0.981 with QS11; 0.596 with CUDC-101; 0.784 with AC220; 0.959 with RDEA119 (screen: GDSC drug entry 1014). Besides, the AUC with RDEA119 (screen: GDSC drug entry 1526) amounted to 0.953; with 5-Fluorouracil it was 0.824. For the same cell line, the IC50 was 12000 nM with OSU-03012; 1820 nM with JNK-9L; greater than 10200 nM with QS11; 592 nM with CUDC-101; 445 nM with AC220; greater than 5000 nM with RDEA119 (screen: GDSC drug entry 1014). Further, the values for the IC50 with RDEA119 (screen: GDSC drug entry 1526) and with 5-Fluorouracil were greater than 5000 nM and 19700 nM, respectively.

For the cell line NALM-6 (B-cell leukaemia, suspension), the AUC with OSU-03012 is 0.432; with JNK-9L, 0.454; with QS11, 0.783; in the assay with CUDC-101, 0.376; with AC220, 0.922; in the assay with RDEA119 (screen: GDSC drug entry 1014) it was 0.985. For the same cell line, the results for the AUC with RDEA119 (screen: GDSC drug entry 1526) and with 5-Fluorouracil were 0.99 and 0.412, respectively. Besides, the IC50 is 673 nM with OSU-03012; 245 nM with JNK-9L; 3580 nM with QS11; 155 nM in the assay with CUDC-101; greater than 1020 nM in the assay with AC220; greater than 5000 nM in the assay with RDEA119 (screen: GDSC drug entry 1014). Also, the IC50 was greater than 5000 nM with RDEA119 (screen: GDSC drug entry 1526) and 1200 nM with 5-Fluorouracil.

With NAMALWA (Burkitt lymphoma, suspension), the AUC with OSU-03012 was determined as 0.669; with JNK-9L it was 0.621; with QS11, 0.94; in the assay with CUDC-101 it was 0.069; with AC220 it was 0.991; with RDEA119 (screen: GDSC drug entry 1014), 0.989. The AUC with RDEA119 (screen: GDSC drug entry 1526) was 0.991; with 5-Fluorouracil, 0.648. Moreover, the IC50 is 2720 nM with OSU-03012; 650 nM with JNK-9L; greater than 10200 nM with QS11; less than 20 nM with CUDC-101; greater than 1020 nM with AC220; greater than 5000 nM with RDEA119 (screen: GDSC drug entry 1014). Further, the values for the IC50 with RDEA119 (screen: GDSC drug entry 1526) and with 5-Fluorouracil were greater than 5000 nM and 4760 nM, respectively.

These data come from the supplement of paper PMC4967469.
